# Results: the supplement of paper PMC8728848
# This is one part of the list.
# What was measured:
# Experiment in all cases: glycan array binding signal (z-score within array); higher = stronger binding
# Conditions in all cases: glycan notation: IUPAC condensed, linker removed; mutation: D22R
# GalNAc(b1-4)GlcNAc = target: GalNAc(b1-4)GlcNAc
# Method in brief: (§1)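 From the Consortium for Functional Glycomics database, 3228 arrays were curated, keeping only those whose protein sequence was available. Binding is given as a within-array Z-score averaged across arrays sharing a protein sequence and across linkers. Negative Z-scores can be read as non-binding.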
# [1] = target: GalNAc(b1-4)GlcNAc(b1-2)Man
# Method in brief: as §1
# [2] = target: GalNAc(b1-4)GlcNAc(b1-2)Man(a1-3)[GalNAc(b1-4)GlcNAc(b1-2)Man(a1-6)]Man(b1-4)GlcNAc(b1-4)GlcNAc
# Method in brief: as §1
# [3] = target: GalNAc(b1-4)GlcNAc(b1-3)GalNAc(b1-4)GlcNAc
# Method in brief: as §1
# GalNAc(b1-4)GlcNAc6S = target: GalNAc(b1-4)GlcNAc6S
# Method in brief: as §1
# GalNAc(b1-6)GalNAc = target: GalNAc(b1-6)GalNAc
# Method in brief: as §1
# GalNAc3S(b1-4)GlcNAc = target: GalNAc3S(b1-4)GlcNAc
# Method in brief: as §1
# GalNAc3S(b1-4)GlcNAc3S = target: GalNAc3S(b1-4)GlcNAc3S
# Method in brief: as §1
# [4] = target: GalNAc3S(b1-4)[Fuc(a1-3)]GlcNAc
# Method in brief: as §1
# GalNAc4S6S(b1-4)GlcNAc = target: GalNAc4S6S(b1-4)GlcNAc
# Method in brief: as §1
# GalNAc6S(b1-4)GlcNAc = target: GalNAc6S(b1-4)GlcNAc
# Method in brief: as §1
# Glc(a1-4)Glc = target: Glc(a1-4)Glc
# Method in brief: as §1
# [5] = target: Glc(a1-4)Glc(a1-4)Glc(a1-4)Glc
# Method in brief: as §1
# Glc(a1-6)Glc(a1-6)Glc = target: Glc(a1-6)Glc(a1-6)Glc
# Method in brief: as §1
# [6] = target: Glc(a1-6)Glc(a1-6)Glc(a1-6)Glc
# Method in brief: as §1
# Glc(b1-4)Glc = target: Glc(b1-4)Glc
# Method in brief: as §1
# Glc(b1-6)Glc = target: Glc(b1-6)Glc
# Method in brief: as §1
# GlcA(b1-3)Gal = target: GlcA(b1-3)Gal
# Method in brief: as §1
# GlcA(b1-3)GlcNAc = target: GlcA(b1-3)GlcNAc
# Method in brief: as §1
# GlcA(b1-6)Gal = target: GlcA(b1-6)Gal
# Method in brief: as §1
# [7] = target: GlcA3S(b1-3)Gal(b1-4)GlcNAc(b1-2)Man
# Method in brief: as §1
# [8] = target: GlcA3S(b1-3)Gal(b1-4)GlcNAc(b1-3)Gal(b1-4)Glc
# Method in brief: as §1
# [9] = target: GlcNAc(a1-3)Gal(b1-4)GlcNAc
# Method in brief: as §1
# [10] = target: GlcNAc(a1-4)Gal(b1-3)GlcNAc
# Method in brief: as §1
# [11] = target: GlcNAc(a1-4)Gal(b1-4)GalNAc
# Method in brief: as §1
# [12] = target: GlcNAc(a1-4)Gal(b1-4)GlcNAc
# Method in brief: as §1
# [13] = target: GlcNAc(a1-4)Gal(b1-4)GlcNAc(b1-3)Gal(b1-4)Glc
# Method in brief: as §1
# [14] = target: GlcNAc(a1-4)Gal(b1-4)GlcNAc(b1-3)Gal(b1-4)GlcNAc
# Method in brief: as §1
# [15] = target: GlcNAc(a1-4)Gal(b1-4)GlcNAc(b1-3)Gal(b1-4)GlcNAc(b1-3)Gal(b1-4)GlcNAc
# Method in brief: as §1
# [16] = target: GlcNAc(a1-4)Gal(b1-4)GlcNAc(b1-3)Gal(b1-4)[Fuc(a1-3)]GlcNAc(b1-3)Gal(b1-4)[Fuc(a1-3)]GlcNAc
# Method in brief: as §1
# [17] = target: GlcNAc(a1-6)Gal(b1-4)GlcNAc
# Method in brief: as §1
# [18] = target: GlcNAc(b1-2)Gal(b1-3)GalNAc
# Method in brief: as §1
# [19] = target: GlcNAc(b1-2)Man(a1-3)[GlcNAc(b1-2)Man(a1-6)]Man(b1-4)GlcNAc(b1-4)GlcNAc
# Method in brief: as §1
# [20] = target: GlcNAc(b1-2)Man(a1-3)[GlcNAc(b1-2)Man(a1-6)]Man(b1-4)GlcNAc(b1-4)[Fuc(a1-6)]GlcNAc
# Method in brief: as §1
# [21] = target: GlcNAc(b1-2)Man(a1-3)[GlcNAc(b1-4)][GlcNAc(b1-2)Man(a1-6)]Man(b1-4)GlcNAc(b1-4)GlcNAc
# Method in brief: as §1
# [22] = target: GlcNAc(b1-2)Man(a1-3)[GlcNAc(b1-4)][GlcNAc(b1-2)Man(a1-6)]Man(b1-4)GlcNAc(b1-4)[Fuc(a1-6)]GlcNAc
# Method in brief: as §1
# [23] = target: GlcNAc(b1-2)[GlcNAc(b1-4)]Man(a1-3)[GlcNAc(b1-2)Man(a1-6)]Man(b1-4)GlcNAc(b1-4)GlcNAc
# Method in brief: as §1
# [24] = target: GlcNAc(b1-2)[GlcNAc(b1-4)]Man(a1-3)[GlcNAc(b1-4)][GlcNAc(b1-2)Man(a1-6)]Man(b1-4)GlcNAc(b1-4)GlcNAc
# Method in brief: as §1
# [25] = target: GlcNAc(b1-2)[GlcNAc(b1-4)]Man(a1-3)[GlcNAc(b1-4)][GlcNAc(b1-2)[GlcNAc(b1-6)]Man(a1-6)]Man(b1-4)GlcNAc(b1-4)GlcNAc
# Method in brief: as §1
# [26] = target: GlcNAc(b1-2)[GlcNAc(b1-4)]Man(a1-3)[GlcNAc(b1-4)][GlcNAc(b1-2)[GlcNAc(b1-6)]Man(a1-6)]Man(b1-4)GlcNAc(b1-4)[Fuc(a1-6)]GlcNAc
# Method in brief: as §1
# [27] = target: GlcNAc(b1-2)[GlcNAc(b1-6)]Man(a1-6)[GlcNAc(b1-2)Man(a1-3)]Man(b1-4)GlcNAc(b1-4)GlcNAc
# Method in brief: as §1
# [28] = target: GlcNAc(b1-2)[GlcNAc(b1-6)]Man(a1-6)[GlcNAc(b1-2)Man(a1-3)]Man(b1-4)GlcNAc(b1-4)[Fuc(a1-6)]GlcNAc
# Method in brief: as §1
# [29] = target: GlcNAc(b1-2)[GlcNAc(b1-6)]Man(a1-6)[GlcNAc(b1-4)][GlcNAc(b1-2)Man(a1-3)]Man(b1-4)GlcNAc(b1-4)GlcNAc
# Method in brief: as §1
# GlcNAc(b1-3)Fuc = target: GlcNAc(b1-3)Fuc
# Method in brief: as §1
# GlcNAc(b1-3)Gal = target: GlcNAc(b1-3)Gal
# Method in brief: as §1
binder,measurement,setting,value
MpL2 (Macrolepiota procera) (protein) MSTQVSSGQTYKITNVKAGTVIRLSGEDNKSIIGYPYHSGKNQQWTFNWTGKAWTLRSASSGSYLGIEGTPADGTRLVAVNDPFEWHIWRDEANENAFRIFVPFTNYNLDLSGYGDTTPGTPVQLWWTWEGLHQTWTIDRP,glycan array binding signal (z-score),GalNAc(b1-4)GlcNAc,0.075
same,glycan array binding signal (z-score),[1],-1.07
same,glycan array binding signal (z-score),[2],-0.199
same,glycan array binding signal (z-score),[3],-0.975
same,glycan array binding signal (z-score),GalNAc(b1-4)GlcNAc6S,-0.468
same,glycan array binding signal (z-score),GalNAc(b1-6)GalNAc,-0.246
same,glycan array binding signal (z-score),GalNAc3S(b1-4)GlcNAc,-0.246
same,glycan array binding signal (z-score),GalNAc3S(b1-4)GlcNAc3S,-0.109
same,glycan array binding signal (z-score),[4],0.243
same,glycan array binding signal (z-score),GalNAc4S6S(b1-4)GlcNAc,-0.021
same,glycan array binding signal (z-score),GalNAc6S(b1-4)GlcNAc,-0.32
same,glycan array binding signal (z-score),Glc(a1-4)Glc,-0.285
same,glycan array binding signal (z-score),[5],-0.646
same,glycan array binding signal (z-score),Glc(a1-6)Glc(a1-6)Glc,-0.037
same,glycan array binding signal (z-score),[6],-0.35
same,glycan array binding signal (z-score),Glc(b1-4)Glc,-0.191
same,glycan array binding signal (z-score),Glc(b1-6)Glc,-0.282
same,glycan array binding signal (z-score),GlcA(b1-3)Gal,0.2
same,glycan array binding signal (z-score),GlcA(b1-3)GlcNAc,0.105
same,glycan array binding signal (z-score),GlcA(b1-6)Gal,9.35
same,glycan array binding signal (z-score),[7],-0.011
same,glycan array binding signal (z-score),[8],-1.32
same,glycan array binding signal (z-score),[9],-0.334
same,glycan array binding signal (z-score),[10],-0.189
same,glycan array binding signal (z-score),[11],-0.251
same,glycan array binding signal (z-score),[12],-0.021
same,glycan array binding signal (z-score),[13],-0.304
same,glycan array binding signal (z-score),[14],0.083
same,glycan array binding signal (z-score),[15],-0.264
same,glycan array binding signal (z-score),[16],0.004
same,glycan array binding signal (z-score),[17],0.511
same,glycan array binding signal (z-score),[18],-0.318
same,glycan array binding signal (z-score),[19],-0.206
same,glycan array binding signal (z-score),[20],1.36
same,glycan array binding signal (z-score),[21],-0.204
same,glycan array binding signal (z-score),[22],-0.375
same,glycan array binding signal (z-score),[23],-0.1
same,glycan array binding signal (z-score),[24],-0.261
same,glycan array binding signal (z-score),[25],-0.207
same,glycan array binding signal (z-score),[26],0.14
same,glycan array binding signal (z-score),[27],-0.306
same,glycan array binding signal (z-score),[28],0.587
same,glycan array binding signal (z-score),[29],-0.215
same,glycan array binding signal (z-score),GlcNAc(b1-3)Fuc,0.069
same,glycan array binding signal (z-score),GlcNAc(b1-3)Gal,-0.201
